Measurements published in paper PMC4336329 (PLoS ONE, 2015).
The campaign covered roughly 310,000 compounds. About 2,200 (0.71%) showed an effect of 50% or more. Effects have a minus sign here. The list shows a part of the results.

Target: human ether-à-go-go-related gene (hERG) potassium channel (human, UniProt Q12809)
Experiment: primary screen, population patch clamp on CHO cells stably expressing hERG

Chain of human ether-à-go-go-related gene (hERG) potassium channel (Q12809 whole entry, looked up): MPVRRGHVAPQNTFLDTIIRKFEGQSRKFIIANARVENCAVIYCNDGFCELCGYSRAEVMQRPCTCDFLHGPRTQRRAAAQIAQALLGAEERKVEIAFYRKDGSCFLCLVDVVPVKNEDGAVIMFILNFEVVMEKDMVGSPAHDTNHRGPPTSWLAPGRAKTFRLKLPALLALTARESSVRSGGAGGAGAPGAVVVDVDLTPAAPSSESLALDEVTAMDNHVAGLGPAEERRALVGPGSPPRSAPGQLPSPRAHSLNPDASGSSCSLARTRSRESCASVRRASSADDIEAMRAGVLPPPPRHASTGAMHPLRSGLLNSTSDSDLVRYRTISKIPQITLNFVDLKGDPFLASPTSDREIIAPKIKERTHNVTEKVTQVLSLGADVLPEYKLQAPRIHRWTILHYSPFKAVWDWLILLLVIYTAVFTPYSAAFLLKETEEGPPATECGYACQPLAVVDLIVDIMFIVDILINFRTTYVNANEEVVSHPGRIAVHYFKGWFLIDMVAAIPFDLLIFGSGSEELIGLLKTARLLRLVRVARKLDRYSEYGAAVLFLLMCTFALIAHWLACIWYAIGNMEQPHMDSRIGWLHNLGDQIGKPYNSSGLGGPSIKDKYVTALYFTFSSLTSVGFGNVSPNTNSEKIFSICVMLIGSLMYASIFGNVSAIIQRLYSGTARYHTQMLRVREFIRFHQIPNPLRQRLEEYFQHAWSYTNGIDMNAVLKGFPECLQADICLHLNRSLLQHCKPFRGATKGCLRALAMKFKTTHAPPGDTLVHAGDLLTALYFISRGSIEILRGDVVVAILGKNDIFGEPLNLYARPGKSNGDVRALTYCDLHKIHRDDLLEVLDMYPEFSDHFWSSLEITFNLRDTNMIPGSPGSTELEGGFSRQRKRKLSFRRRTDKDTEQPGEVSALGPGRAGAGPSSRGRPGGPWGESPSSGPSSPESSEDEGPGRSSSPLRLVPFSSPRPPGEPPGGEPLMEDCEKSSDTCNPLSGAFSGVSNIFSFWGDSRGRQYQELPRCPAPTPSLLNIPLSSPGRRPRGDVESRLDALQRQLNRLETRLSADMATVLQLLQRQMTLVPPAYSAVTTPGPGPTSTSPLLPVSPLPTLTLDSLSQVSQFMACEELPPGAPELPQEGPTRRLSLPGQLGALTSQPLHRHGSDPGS

Row | Compound | hERG current change (%, negative = inhibition) at 1uM
1 | O=C(c1cc([N+](=O)[O-])ccc1N1CCCC1)N1CCCC1 | -0.903%
2 | COC(=O)c1cc(S(=O)(=O)C(C)C)c(S(C)=O)s1 (centres unmarked) | 15.1%
3 | O=C(N/N=C/c1cccc([N+](=O)[O-])c1)c1ccc(CN2CCOCC2)cc1 | 7.54%
4 | O=C(NCCOc1ccc(F)cc1)C1CCC(=O)N(CCc2ccccn2)C1 (centres unmarked) | 5%
5 | O=C(Nc1ccccc1N1CCCC1)C1CCN(S(=O)(=O)c2ccccc2C(F)(F)F)CC1 | 2.51%
6 | COc1ccc(C(=O)COc2ccccc2C(=O)Nc2ccccc2)cc1 | 12.5%
7 | COc1ccc(OCC(=O)N/N=C2\CCCc3ccccc32)cc1 | 5.66%
8 | COc1ccccc1N1CCN(C(CNS(=O)(=O)c2cc(F)ccc2F)c2cccnc2)CC1 (centres unmarked) | -2.68%
9 | CCN1CCN(Cc2cccc(Oc3ccccc3)c2)CC1 | -12.6%
10 | O=S(=O)(Nc1nc2ccccc2nc1NCCO)c1cccc(Cl)c1 | 9.43%
11 | CCOc1ccc(N(CC(=O)NC2CCCCCC2)S(=O)(=O)c2c(C)[nH]c(=O)[nH]c2=O)cc1 | 13.4%
12 | CCn1c(SCC(=O)NC2=NCCS2)nnc1C(C)NC(=O)c1ccccc1F (centres unmarked) | 13.7%
13 | COc1ccc(C(=O)N[C@H](C(=O)Nc2sccc2C(N)=O)C(C)C)cc1 | 11.7%
14 | CCC(c1nnc(SCC(=O)Nc2nnc(-c3ccccc3)o2)n1Cc1ccccc1)N(C)C (centres unmarked) | 11.2%
15 | CN(C)S(=O)(=O)N1CCN(c2ccc([N+](=O)[O-])c(NC3CC3)c2)CC1 | 10.4%
16 | CC(=O)c1ccc(O)c(CC=C(C)C)c1O | 6.25%
17 | CC(=O)c1ccc(NC(=O)C2CCCN(C(=O)c3ccc(Cl)cc3)C2)cc1 (centres unmarked) | 2.59%
18 | COc1cc(/C=N/NC(=O)c2ccc(CSc3nc4ccccc4[nH]3)cc2)cc(OC)c1OC | 1.08%
19 | CCOC(=O)c1cnc(-n2nc(C)cc2C)nc1Oc1ccc(C(=O)OC)cc1 | 13.1%

Row | Compound | hERG current change (%, negative = inhibition) at 1uM
20 | COc1ccc(F)cc1C(=O)C1CCCN(Cc2cccn2-c2ccccn2)C1 (centres unmarked) | -89.9%
21 | CCCNC(=O)C1(CC2CC(c3ccccc3)=NO2)CCN(C(=O)C2(C)CC2)CC1 (centres unmarked) | 10.3%
22 | Cc1cc(C)nc(SCC(=O)N2CCOCC2)n1 | 4.62%
23 | COc1ccc(-c2[nH]ncc2CNCC(C)(C)N2CCOCC2)cc1F | 12.4%
24 | O=C1C2CC=CCC2C(=O)N1Cc1ccccc1Cl (centres unmarked) | 13.3%
25 | Cc1ccc(S(=O)(=O)N2CCC(C(=O)Nc3nnc(-c4ccco4)s3)CC2)cc1 | 13.6%
26 | O=C(NCCc1ccccn1)c1cccnc1Oc1ccc(Cl)cc1 | 7.09%
27 | COc1ccc2nc(N)sc2c1 | 14.2%
28 | CC1=C(C#N)S(=O)(=O)C(C#N)C(c2ccccc2)C1 (centres unmarked) | 16.1%
29 | COc1ccc(C2c3c(ccc4ccccc34)Oc3ncn4nc(Cc5ccc(OC)c(OC)c5)nc4c32)cc1 (centres unmarked) | 2.05%
30 | N#CC1=C(N)Oc2n[nH]c(CSc3ccccc3)c2C12C(=O)Nc1ccccc12 (centres unmarked) | 8.6%
31 | N#CCCn1cc(C(=O)NCc2ccccc2)c(-c2ccc3c(c2)OCCO3)n1 | 8.32%
32 | Cc1cccc(OCc2nnc(SCC(=O)Nc3nccs3)o2)c1 | 6.72%
33 | COc1ccc2cc3cc(C(=O)Nc4ccc5c(c4)OCO5)oc3nc2c1 | 3.59%
34 | CCN(CC)C(=O)CN1CCC(c2nc3cc(C)c(C)cc3[nH]2)CC1 | 11.1%
35 | CCn1c(C)nc2cc(N)ccc21.Cl | 7.53%
36 | CCOC(=O)C1C(=O)OC(C)(C)C1C(C)C(=O)c1ccccc1 (centres unmarked) | 23.5%
37 | O=C(COC(=O)c1cn(-c2ccccc2)nc1-c1ccccc1)Nc1ncc(Cl)cc1Cl | 3.57%
38 | CC(=O)NC1C(=O)N=C(SCc2ccccc2)NC1=O (centres unmarked) | 9.17%

Row | Compound | hERG current change (%, negative = inhibition) at 1uM
39 | COc1ccc(C2C(C(C)=O)=C(O)C(=O)N2Cc2ccccc2)c(OC)c1 (centres unmarked) | 11.2%
40 | O=C(O)CCc1nn2c3ccccc3n(CC(=O)c3ccccc3)c2nc1=O | 0.268%
41 | O=C(OCCOc1cccc(Cl)c1)C1CCN(S(=O)(=O)c2ccccc2)CC1 | -4.12%
42 | C[C@H](c1ccccc1)n1nnc(COCc2ccccc2)c1C#CCOCc1ccccc1 | 10.8%
43 | O=C1CC[C@@H](C(=O)O)N1 | -3.71%
44 | CN(C)S(=O)(=O)c1ccc(S(=O)(=O)N(Cc2ccco2)Cc2ccccc2Cl)cc1 | 4.17%
45 | S=c1[nH]nc(CCc2ccccc2)n1Cc1ccccc1 | 7.67%
46 | COCCCNc1nc2ccccc2nc1NS(=O)(=O)c1ccccc1 | 19.6%
47 | Cc1c(C)n(Cc2ccccc2)c2ncnc(NCCO)c12 | 10.6%
48 | O=C(CCNC(=O)c1ccccc1)NCCCc1ccccc1 | 10.6%
49 | O=C(CN(C(=O)CNS(=O)(=O)c1ccccc1)C1CCCC1)NCC1CCCO1 (centres unmarked) | 4.8%
50 | CCCCC(NC(=O)c1ccc(C#N)cc1)C(=O)NCCC (centres unmarked) | -1.36%
51 | O=C(OCC(=O)N1CCN(c2ccccc2)CC1)c1cccc([N+](=O)[O-])c1 | -3%
52 | O=C(O)Cn1nc(-c2ccccc2)ccc1=O | 9.53%
53 | CCOC(=O)CSc1nnc(CNC(=O)c2cc(OCC)c(OCC)c(OCC)c2)n1C | 0.985%
54 | COc1ccc(C(=O)Nc2ccc(O)c3ccccc23)cc1 | 11.8%
55 | Cc1nonc1C1CCCN1C(=O)c1cc(COc2cccc(C(F)(F)F)c2)on1 (centres unmarked) | 8.26%
56 | CCOC(=O)c1cc(-c2cc3ccccc3o2)nc2c1c(=O)[nH]c(=O)n2CCOC | 10%
